Experimental findings from ChEMBL document CHEMBL4888484, “Replenishing the malaria drug discovery pipeline: Screening and hit evaluation of the MMV Hit Generation Library 1 (HGL1) against asexual blood stage Plasmodium falciparum ,using a nano luciferase reporter read-out” (2022) are described below.

The structures appear in SMILES notation. Screen size: about 150,000 compounds; about 540 (0.36%) showed an effect of 50% or more. This is one part of the list.

The experiment relates to Plasmodium falciparum. In words: Primary screen in NF54 nanoGlo assay, in single point, at 2uM, 72h; a lower Z score goes with more inhibition. It counts as functional, Erythrocyte. Particulars: timepoint 72 hour.
`CC(C)COC1CCN(C(=O)C(=O)Nc2nccs2)CC1`: the “% Inhibition” value is recorded as -2% and the Z score was found to be 0.21.
`CN(C)C(=O)C1C[C@@H]2OCC[C@@H]2N1C(=O)COC1CCCC1` (stereo not given in full): the “% Inhibition” value was 7% and the Z score is recorded as -1.03.
Take `N#Cc1ccc(NCc2ccc(Cn3cccn3)cc2)nc1`: the “% Inhibition” value is -10% and the Z score is recorded as 0.98.
In the case of `c1cc2c(cc1-c1nnc(C3CC3)o1)OCO2`, the “% Inhibition” value is -20% and the Z score stood at 2.88.
As for `Cc1cc(C)nc(N(C)Cc2nncn2C(C)C)n1`, the “% Inhibition” value is 0% and the Z score came to 0.03.
Regarding `O=S(=O)(CC1CCOC1)N1CCCC1Cn1ccnc1` (stereo not given), the “% Inhibition” value is listed as -2% and the Z score turned out to be 0.21.
Consider `COCCS(=O)(=O)NC(=O)C1CC1C1CCCCC1` (stereo not given), for which the “% Inhibition” value is on record as 1% and the Z score is given as -0.1.
With `CCOc1ccc(-[n+]2cc(-c3ccccc3)n3c2CCC3)cc1`, the “% Inhibition” value was 68% and the Z score was -6.48.
For `CC(c1ccc(Cl)cc1Cl)N(C)C(=O)C1CCNC1` (stereo not given) the same measures were -10% and 1.93.
Turning to `Cc1nnc2ccc(N3CCNC(=O)[C@@H]3C)nn12`, the “% Inhibition” value is listed as -4% and the Z score was found to be 0.4.
With `Cc1cc(S(=O)(=O)Nc2cccc(CN3CCOCC3)n2)c(C)s1`, the “% Inhibition” value is -8% and the Z score turned out to be 0.82.
For `COc1cc(NC(=O)N[C@H]2CCO[C@@H]2c2nccn2C)cc(Cl)c1OC` the same measures were -4% and 0.59.
In the case of `Cc1cccnc1N1CCC(c2nccn2CCCN(C)C)CC1`, the “% Inhibition” value was -6% and the Z score was determined as 1.09.
For `O=S(=O)(NC(c1ccccn1)[C@H]1C[C@H](O)C1)N1CCCC1` (stereo not given in full), the “% Inhibition” value is on record as -6% and the Z score came to 1.14.
In the same order, the values of `COc1cc(C(=O)n2ccc(-c3ccc4c(c3)OCO4)n2)cc(OC)c1OC` are 0% and 0.04.
For the compound `O=C(NC1CC1)[C@@H]1C[C@@H]2OCC[C@@H]2N1C(=O)c1ccc(-c2ccccc2F)o1`, the “% Inhibition” value is listed as -1% and the Z score turned out to be 0.18.
For `O=C(Nc1cc(Cl)cc(Cl)c1)[C@H](CC1CCCCC1)N1CCS(=O)(=O)CC1` the same measures were -3% and 0.41.
Turning to `Cc1nc(C(=O)NCC2CCCC2O)no1` (stereo not given), the “% Inhibition” value is -7% and the Z score is given as 0.95.
`Cc1ccc(C)c(S(=O)(=O)N2CCC[C@H](N3CCNCC3=O)C2)c1`: the “% Inhibition” value is reported as -6% and the Z score worked out at 0.86.
Consider `Cc1nc([C@H](C)NC(=O)c2c(C)[nH]c3c2C(=O)CCC3)c(C)s1`, for which the “% Inhibition” value is on record as -16% and the Z score came out at 3.01.
With `CCn1nc(-c2cc(C)ccc2C)nc1N(C)C`, the “% Inhibition” value is -9% and the Z score turned out to be 1.39.
Regarding `CCOC(=O)c1cc(CNCCc2nc3ccccc3[nH]2)on1`, the “% Inhibition” value is listed as -2% and the Z score worked out at 0.42.
In the case of `C[C@H]1CN(C(=O)c2cccc(S(=O)(=O)N3CCCCCCC3)c2)CCN1`, the “% Inhibition” value worked out at 5% and the Z score is reported as -0.8.
`CC(C)[C@H](Cc1ccc(F)cc1)NC(=O)c1c[nH]nn1`: the “% Inhibition” value worked out at 1% and the Z score is on record as -0.14.
Take `CCc1nc(C)c(NS(=O)(=O)c2ccc(C)c(C(=O)O)c2C)s1`: the “% Inhibition” value was -6% and the Z score came to 1.05.
As for `CC[C@H](NC(=O)Nc1nc(C)n(C)n1)c1ccccc1OC(F)F`, the “% Inhibition” value is reported as 8% and the Z score is reported as -1.41.
For `O=C(CN1CCN(S(=O)(=O)c2ccc(Br)cc2)CC1)NC1CCCCCC1`, the “% Inhibition” value is -8% and the Z score is given as 0.99.
Take `COC(=O)c1cc(NC(=O)N2CCO[C@H](C(=O)OC)C2)c(F)cc1F`: the “% Inhibition” value is 32% and the Z score is listed as -4.13.
On to `Cc1nc(CS(=O)(=O)Cc2csc(COc3ccc(Cl)cc3)n2)no1`, for which the “% Inhibition” value is on record as -13% and the Z score is 1.68.
`Cc1cc(-c2nc(C(C)(C)C3=CCCCC3)no2)n[nH]1`: the “% Inhibition” value was -4% and the Z score is 0.6.
As to `CNC(=O)c1cc2c(s1)CCN(C(=O)[C@@H]1CN(C)c3ccccc3O1)C2`, the “% Inhibition” value is recorded as 14% and the Z score is -1.99.
Turning to `Cc1cc(CNC(=O)c2csc(=O)[nH]2)n(C)n1`, the “% Inhibition” value is 39% and the Z score is on record as -1.31.
On to `CC(C)C1CC(CC(=O)NCC2CS(=O)(=O)CCO2)CCO1` (stereo not given), for which the “% Inhibition” value was -2% and the Z score is recorded as 0.31.
Consider `Cc1oc(-c2ccc(F)cc2)nc1CN1CC(=O)N(C)c2ccccc2C1=O`, for which the “% Inhibition” value is on record as -15% and the Z score worked out at 1.89.
Turning to `COc1nc2ccc(C)cc2cc1-c1noc(-c2cccnc2)n1`, the “% Inhibition” value is listed as -3% and the Z score is 0.32.
For `C=CCC1(O)CN(Cc2nnn(-c3ccccc3)c2C2CC2)C1` the same measures were -1% and 0.2.
On to `COc1ccc(C(=O)NC2(c3ccccc3)CCOCC2)cc1`, for which the “% Inhibition” value was -5% and the Z score came to 0.85.
As to `CC[C@@H](COC)NC(=O)Nc1cc(C)nn1CC(C)C`, the “% Inhibition” value was 8% and the Z score was -1.53.
Turning to `Cc1ccc2[nH]cc(-c3nc(N(C)C)ns3)c2c1`, the “% Inhibition” value was 6% and the Z score is reported as -1.16.
In the same order, the values of `O=C1C[C@@H](C(=O)NCc2ccccc2)N=C(N2CCCCC2)N1` are -5% and 0.61.
For `CC(C)(C)CC(=O)N1CCN(Cc2ccncc2)[C@@H]2CS(=O)(=O)C[C@@H]21`, the “% Inhibition” value was -1% and the Z score is reported as 0.19.
For `CN1C(=O)N([C@H]2CCc3cc(Cl)ccc32)C(=O)C1(C)C` the same measures were 1% and -0.07.
On to `CC1(C)CN(C(=O)Nc2ccc(C(F)(F)F)cc2Cl)CCS1(=O)=O`, for which the “% Inhibition” value was determined as 5% and the Z score is on record as -0.64.
For `CCc1nnc2n1CC(NC(C)C(=O)Nc1ccc(Cl)cn1)CC2` (stereo not given), the “% Inhibition” value was determined as 0% and the Z score is -0.01.
As to `CC(C)c1cnc(CN2C(=O)N[C@]3(CCN(C(=O)OC(C)(C)C)C3)C2=O)o1`, the “% Inhibition” value came out at 2% and the Z score is on record as -0.18.
Consider `Cc1cc(Nc2ccc(Cl)cn2)ncn1`, for which the “% Inhibition” value is -5% and the Z score is 0.54.
In the same order, the values of `CC(C)OC[C@@H](O)CN1CCN(c2ccc(NC(=O)Cc3cccs3)cn2)CC1` are -2% and 0.31.
In the same order, the values of `COc1cccc(CNC(=O)[C@@H]2C[C@@H](O)CN2C2CCN(C(=O)CCn3nc(C)cc3C)CC2)c1` are 9% and -1.15.
Take `O=C(Cc1c(F)cccc1F)N1CCO[C@H](c2ncon2)C1`: the “% Inhibition” value is -3% and the Z score worked out at 0.42.
`Cc1cc(C)c(-n2cccn2)c(CN2CCC[C@H]2c2ccc(C(N)=O)s2)c1`: the “% Inhibition” value was -10% and the Z score was 1.55.
In the case of `CN(Cc1ccc(Br)c(F)c1)C1CC[S+]([O-])CC1` (stereo not given), the “% Inhibition” value was 3% and the Z score was -0.52.
For `NC(=O)Cc1noc(CCN2C(=O)c3ccccc3C2=O)n1` the same measures were -9% and 1.25.
For `COc1ccc(C(C)(C)c2nc(CO)no2)cc1` the same measures were 11% and -1.46.
For `CCOc1ccc([C@H](CC)NCc2nc(C)c[nH]2)cc1`, the “% Inhibition” value is on record as -22% and the Z score amounted to 2.24.
Regarding `O=C(CCc1cccs1)Nc1cccc(C#Cc2ccccn2)c1`, the “% Inhibition” value is given as 1% and the Z score is -0.21.
Take `CN(C(=O)c1ccco1)c1ccccc1-c1nc(-c2ccc(Br)o2)no1`: the “% Inhibition” value is listed as -3% and the Z score is listed as 0.48.
Turning to `O=C1C2ON(c3ccccc3)C(c3ccc(F)c(Br)c3)C2C(=O)N1c1cccc2ccccc12` (stereo not given), the “% Inhibition” value is recorded as -14% and the Z score was 2.04.
For `O=C(c1nc2ccccn2c1-c1ccc(F)cc1)N1CCCCCC1` the same measures were -2% and 0.33.
In the same order, the values of `COc1cc2c(cc1OC)CN(c1cc(C(=O)NCc3ccccc3F)c3ccccc3n1)CC2` are 2% and -0.37.
In the same order, the values of `Cc1nn(C)c(C)c1C(=O)N1CCOc2ccc(N(C)C)cc2C1` are -1% and 0.27.
`CCc1noc(C)c1-c1noc(CC2(COC)CC2)n1`: the “% Inhibition” value was -12% and the Z score is given as 1.69.
In the same order, the values of `Cc1sc(-c2nnc(C(=O)N3CCCC3)o2)cc1S(=O)(=O)NC1CCCCCC1` are -8% and 1.13.
Regarding `COCCn1c(-c2ccccc2Cl)nnc1N1C[C@H](C)OC(C)(C)C1`, the “% Inhibition” value was -4% and the Z score is 0.55.
As to `CN(Cc1cccn1C)C(=O)[C@H]1CCc2nncn2C1`, the “% Inhibition” value is given as -9% and the Z score amounted to 1.38.
For `Cc1nc(CN2CCCC[C@H]2C(=O)Nc2cccc(-c3nnc(C)s3)c2)no1` the same measures were -18% and 2.77.
For `COc1ccc(N2C(=O)C[C@H](N(C)Cc3nc4ccccc4s3)C2=O)c(OC)c1`, the “% Inhibition” value was -5% and the Z score worked out at 1.08.
Regarding `O=C(Cc1c[nH]c2ccccc12)N1CC[C@H](Oc2cnccn2)C1`, the “% Inhibition” value is -9% and the Z score came to 0.97.
For the compound `Cc1ccc(OCCCN2CCN(C)CC2)c(Cc2ccccc2)c1`, the “% Inhibition” value is on record as -10% and the Z score amounted to 1.33.
For the compound `O[C@@H]1CCN(Cc2cnc3c(-c4ccccc4)cnn3c2)C1`, the “% Inhibition” value is recorded as 1% and the Z score is recorded as -0.13.
`Cc1cccc(OCCN2CC[C@@]3(CCCOC3)C2)c1`: the “% Inhibition” value came out at 0% and the Z score is reported as 0.02.
In the case of `Cc1ccc(C(=O)c2cnc3ccc(F)cc3c2N2CCCC2)cc1C`, the “% Inhibition” value is -8% and the Z score was determined as 0.98.
`c1ccc(-c2ncn([C@H]3COC[C@@H]3N3CCCCC3)c2-c2ccncc2)cc1`: the “% Inhibition” value was -14% and the Z score is recorded as 1.91.
For `Cn1cccc1CN(Cc1cccs1)C(=O)COc1cccc2c1OC(C)(C)C2` the same measures were -1% and 0.11.
In the case of `CC(C)c1cc(C(C)C)n([C@@H]2c3ccccc3C3(CCNCC3)[C@H]2O)n1`, the “% Inhibition” value is -16% and the Z score was determined as 2.14.
`CN1CC(C(=O)NC2CCOC2c2ccc(Cl)c(F)c2)CC1=O` (stereo not given): the “% Inhibition” value is on record as 5% and the Z score is on record as -0.62.
For `CC[C@H](NC(=O)N(C)C1CCOCC1)c1ccc2c(c1)CC(C)(C)O2` the same measures were -5% and 0.75.
Regarding `CN1CCN(Cc2ccc(-c3cc4ccccc4n3C)nc2)CC1`, the “% Inhibition” value is listed as -12% and the Z score is 1.31.
In the same order, the values of `Cc1noc(C)c1S(=O)(=O)N1CCCCCC1` are -11% and 0.89.
On to `COCC(=O)N[C@H]1[C@H](c2cccs2)N(C(=O)N2CCOCC2)CC[C@@]1(C)O`, for which the “% Inhibition” value was -15% and the Z score was 2.33.
For `C[C@@H](C(N)=O)N(c1ccc2c(c1)OCCO2)S(C)(=O)=O`, the “% Inhibition” value turned out to be 0% and the Z score stood at 0.08.
Regarding `O=C(c1cc2c([nH]c1=O)CCCCC2)N1CC2CCC1C2` (stereo not given), the “% Inhibition” value was 29% and the Z score is -3.25.
`CC(C)Cc1noc(Cn2c(=O)n(C)c3ccncc32)n1`: the “% Inhibition” value was -7% and the Z score was determined as 1.35.
As for `Cc1nc2cc(C(=O)N3CCN(CCN4CCOCC4)CC3)ccc2s1`, the “% Inhibition” value is on record as -2% and the Z score was 0.49.
For `OCCN(CCO)Cc1ncc(Cl)cc1Br` the same measures were -3% and 0.51.
As for `COC[C@](C)(NC(=O)c1cncc(-n2ccnn2)c1)c1ccccc1`, the “% Inhibition” value is recorded as -8% and the Z score came to 0.99.
